Variants at the background level are over-represented here.
B1: TPR 5TU (parent)
chain: GGAUCUUCUCGAUCUAACAAAAAAGACAAAUCUGCCACAAAGCUUGAGAGCAUCUUCGGAUGCAGAGGCGGCAGCCUUCGGUGGCGCGAUAGCGCCAACGUUCUCAACUAUGACACGCAAAACGCGUGCUCCGUUGAAUGGAGUUUAUCAUG

Variants of: B1
Assay: polymerase ribozyme fitness, log enrichment relative to wild type (log ratio); higher = more active; in vitro selection for triplet polymerase activity
How it was run: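 Mutant libraries for each subunit of a heterodimeric triplet polymerase ribozyme were made by PCR and then transcribed. Each library underwent one round of in vitro selection in triplicate: annealing with a biotinylated primer, the partner subunit and triplets, frozen incubation at −7 °C, gel excision of extended constructs, streptavidin-bead capture and RT-PCR. Input and output libraries were Illumina-sequenced, and only genotypes with ≥10 input reads and ≥1 read per output were kept. Fitness is the logarithm, base 2, of genotype enrichment over wild-type enrichment, computed from inverse-variance-weighted replicate averages.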

Variant	polymerase ribozyme fitness (log ratio)
U101G G136C	-2.44
C103G A107G A142G	≤ -4.2
A107U U145A	-2.78
C114G G140C G141U	≤ -4.2
A110G C149U	≤ -4.2
C96U U134A U135G	≤ -4.2
C96U U144G	-0.238
A110U C149U	≤ -4.2
C103G U151A	≤ -4.2
G126A A150G	-2.66
C99G G126U	-0.93
U135A C149U	-0.66
A137U G141U	-3.93
C118U U146C	-1.27
C103A U144G	-2.84
C105G C118A	-3.26
C125U G141C	-3.85
G133A G141U	-3.08
U101G A107U C114G U144A	≤ -4.2
A107G C132U G133U	-3.52
A97U U139C G140C U145G	-3.85
A120C C125G G133U	-3.85
A106C G152U	-2.57
G140A G143U	≤ -4.2

Variant	polymerase ribozyme fitness (log ratio)
U101A A106C A147G	-3.14
U134A A137G	-3.22
G124U A142C	-1.75
C114U G141C	-3.4
C131U U144G	-0.864
A97C C103G	≤ -4.2
C103G U127A A137G	≤ -4.2
A122C G126A	-0.186
A97G A150C	-2.96
U104A	0.0691
U104C	0.352
U104G	-0.299
G117U G143U	-2.57
G141A U144C	-3.08
G117U A137G	-1.34
C118U U148A	-2.79
C118U U148G	-3.62
A97G A107G	-4.13
A97G C105U A107U U130A U139G	≤ -4.2
A107C G141U U144G U146C	≤ -4.2
C114U A119U	-1.73
G126U G152U	-2.47
G100U U144G	-3.5
A97U U139A U144A	-4.08

Variant	polymerase ribozyme fitness (log ratio)
A97U U109G	-1.62
C99U A107C G133U	≤ -4.2
C99U U102A	-1.33
C118G A122C G141C	-2.43
A119C G143A	-0.422
G124A A137G	-1.05
C96U U109C	-3.67
C149G	-2.78
C149A	-3.33
C149U	-0.847
C99U C125U	0.0952
G117A U127A	≤ -4.2
G133C U139C	≤ -4.2
A97U U102A C123U U148G	≤ -4.2
C105U A120U G124A	0.877
A115U G126A	-3.35
U104A C105G	≤ -4.2
U102G A121C	-2.85
C129A U148G	-4.11
A107G U148G	≤ -4.2
U139C C149G	≤ -4.2
C114U C125U	-3.33
A122G U127A G128A	-4.01
C99U A150G	-0.552

Variant	polymerase ribozyme fitness (log ratio)
A110U A150C	≤ -4.2
G141C U144A U151C	≤ -4.2
C123U G124A U144C	0.0575
A115G C116A U127G	≤ -4.2
A98U C129U	0.463
A121U U145C	1.15
A107G U139C	≤ -4.2
C99G C103A G124U G126A G141C	≤ -4.2
C129G U130G G133A	≤ -4.2
A98G G124C	-0.819
C105A A107C	≤ -4.2
U101G C118A G126A	-3.59
C108G C129A G140C U146C	≤ -4.2
G136A A147G	-1.36
A97U G140U	-3.87
C125G G128A U148A	≤ -4.2
C103G A120U	-1.5
A120C G136U G140C	-4.19
G100C U104A A106U	≤ -4.2
C114A U139G	-2.32
A97U C125A	-0.436
C99G A107U A137G G141A	≤ -4.2
C129G	-2.45
C129U	-0.0537

Variant	polymerase ribozyme fitness (log ratio)
C129A	-2.46
A98U G141U	1.39
A98G A115G U135G	-3.81
A142C U144A U148G	≤ -4.2
U102G U148A	-3.81
C108A G143U U144G	≤ -4.2
A106G U127G A138G	≤ -4.2
A110G A115U G126C U139C	≤ -4.2
A113U G124C	-3.17
U151A	-3.44
U151C	-2.78
U151G	-3.49
C118G A119G	0.312
A115C U127C	-1.1
U144C A150C	-4.19
A115C C123A	-1.17
C108G C125U	≤ -4.2
U134A A142G	-3.04
G140U U146C	-3.33
A98U A110C	≤ -4.2
U102G C103G A137G U144C U146G A150G	≤ -4.2
A122G U144G	0.851
A106G C125A	-0.665
U104G C125A U148A	≤ -4.2

Variant	polymerase ribozyme fitness (log ratio)
U102G C103A C132U	≤ -4.2
C105G A138G	-3.88
C103G A119C	-1.49
A115G G124A A150G	-4
U135G U146G	≤ -4.2
U135G U144G	-2.41
C131G G133C G136U G141U	-3.43
A119U U127C	-2.06
C116U U144A	-0.259
C103A A115U	-3.09
C103A A115C	-2.54
A106C U135G G143C	≤ -4.2
U102G G126A U134C U135G U145G	≤ -4.2
C114G G133A	≤ -4.2
U101G A107U	-3.84
G100U C131U	≤ -4.2
U101G A106C A113C A122G	≤ -4.2
A98G A120G C125A U144A	-1.16
C99A C116U	-0.602
G126A C132G	-2.68
A98U U101G C129U U139C	≤ -4.2
G128U A137U	-3.34
U101G U102G C125G C129U U144A	≤ -4.2
